Measurements: US20110008356A1 (published 2011)

Molecular target: T1, Human IL-17RA:Fc (human, UniProt Q96F46 33-320)
T1 construct: extracellular domain; Prepared essentially as in Yao 1995 Immunity; captured on the SPR chip by goat anti-human IgG Fc antibody; also called huIL-17RA:Fc; human IL-17RA:Fc fusion protein; not shown: Fc region of human IgG
Assay: SPR (BIAcore 3000), receptor:Fc captured by anti-human Fc, cytokine as analyte, koff/kon, 1:1 Langmuir fit
Protocol: The binding affinities of IL-17A and IL-17F to the extracellular domains of human IL-17RA and human IL-17RC fused to the Fc region of human IgG were determined by surface plasmon resonance (BIAcore™) and cell binding analyses. Surface Plasmon Resonance kinetic analysis was performed using a BIAcore 3000™ instrument (Biacore, Inc., Piscataway, N.J.) run at 25° C. To prepare the chip surface, a goat-anti-human IgG Fc gamma-specific capture antibody (Jackson ImmunoResearch, West Grove, Pa.) was immobilized on two flow cells of either a CM4 or CM5 chip following the manufacturer's instructions. 100-300 response units of either human IL-17RA:Fc or human IL-17RC:Fc proteins were captured on one of the two flow cells while the other flow cell was used as a control. Eight concentrations of the analytes (human and murine IL-17A and IL-17F) were injected over the test and control flow cells in the IL-17RA range of 0.041-1500 nM (except for human IL-17F binding to human IL-17RA:Fc which was used at a higher IL-17RA range of 46.9-6000 nM) and allowed to associate for 3-5 minutes and dissociate for 10-30 minutes. Kinetic runs were performed in running buffer (10 mM Hepes, 150 mM NaCl, 3 mM EDTA, 0.005% P-20) with 100 ug/ml BSA added, at a flow rate of IL-17RA of 50 ul/min. […]

B1: Human IL-17A (ligand)
chain: not shown
notes: Bought reagent; also called huIL-17
Kd: 0.5 nM
